# PubChem BioAssay (NCATS)
# Inconclusive means that the source gave no clear call. Such entries were picked first, then a sample of the others. For part of these data: A potency beside an inconclusive call is a rough fit, not a confirmed value. Active and inactive are the calls of the source. Unless noted, calls follow the shape of the dose curve; as a rule, active = well fitted curve in the direction sought with a large enough effect; inconclusive = small, poorly fitted or top-dose-only effect, or another doubt; inactive = no such curve, though single readings can be large; an effect the other way counts as inactive or inconclusive.
# Key:
# [1] = molecular target: Androgen receptor (Homo sapiens) (UniProt P10275); assay: qHTS assay for small molecule antagonists of androgen receptor signaling (AID 588516; active = well fitted curve in the direction sought with a large enough effect in the signal ratio, with a control signal flat, not every such curve was filed as active; inconclusive = small, poorly fitted or top-dose-only effect, or effect the other way, or a change in a side signal; inactive = no such curve, though single readings can be large or run the other way; the % refers to the signal ratio; also: % is scaled to controls: 0 for no effect and ±100 for the full control effect); conditions: AR-UAS-bla HEK293, beta-lactamase ratio, antagonist mode, 16 h
# In short: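 Cells were plated and incubated 5 h, compounds added in titration, then R1881 (10 nM final) as agonist. After 16 h at 37 C, CCF4 substrate was loaded for 2 h at room temperature and fluorescence measured.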
# [2] = qHTS assay for small molecule agonists of the antioxidant response element (ARE) signaling pathway measured by Nrf2-dependant transcriptional activity (AID 720636; active = well fitted curve in the direction sought with a large enough effect in the repeat runs; inconclusive = weak or mixed curves; inactive = no such curve, though single readings can be large; an effect the other way counts as inactive or inconclusive; also: potency is read from the fitted curve at half-maximal effect)
# In short: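 We exposed ARE-luc HepG2 cells, seeded in assay medium with 1% dialyzed FBS and allowed 6 hr to adhere, to test compounds overnight (16 hr, 37 C) before measuring luciferase with ONE-Glo.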
# [3] = molecular target: Mitogen-activated protein kinase 10 (Mus musculus) (UniProt Q61831); assay: JNK3 AlphaScreen Assay (AID 530; active = well fitted curve in either direction with a large enough effect, not every such curve was filed as active; inconclusive = small, poorly fitted or top-dose-only effect, or another doubt;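 also: kinase came from lysate of stimulated human HepG2 cells; signal reports phosphorylation of biotinylated GST-cJun 1-79 at Ser73 with 10 µM ATP; % is scaled to controls: 0 for no effect and ±100 for the full control effect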); conditions: JNK3 lysate, c-Jun phosphorylation; activity change, negative = inhibition: at 57.1 µM (top of the series)
# In short: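 Room-temperature AlphaScreen kinase assay; pre-activated HepG2 lysate as JNK3 source, biotin-GST-cJun(1-79) substrate, 10 uM ATP, compound 15 min preincubation.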
# [4] = Cellular Toxicity (caspase-3) Jurkat (AID 655); conditions: Jurkat caspase-3 activation, luminescence, DMSO = 0%, tamoxifen = 100%; at 92.2 µM (top of the series);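 also: cells exposed to compound for 16 h at 37 °C before reading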
# In short: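 Luminescent caspase-3/7 readout (aminoluciferin substrate cleavage) in human T-cell leukemia Jurkat cells after 16 hr compound exposure. Concentration-response normalized to DMSO and 100 uM tamoxifen; AC50 by standard Hill equation.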
# [5] = Cell Viability - LYMP2-015 (AID 971);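 also: cells exposed to compound for 24 h; 0% = DMSO only and full effect = 92 µM tetraoctylammonium bromide; nearly all actives have a fitted effect of over 55% in size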
# In short: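 Acute toxicity was scored as a concentration-dependent drop in intracellular ATP in lymphoblastoid cells after 24 hr compound exposure in complete medium. Detection used CellTiter-Glo luciferase luminescence.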
# [6] = Cell Viability - LYMP2-024 (AID 988);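 also: cells exposed to compound for 24 hr at 37 °C; plate controls were DMSO only for no effect and 92 µM tetraoctylammonium bromide for full effect; nearly all actives have a fitted effect of over 60% in size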
# In short: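 Acute toxicity is measured as concentration-dependent loss of intracellular ATP in a human lymphoblastoid line treated 24 hours at 37 C. Luciferase luminescence quantifies ATP; AC50 values come from standard Hill-equation modelling.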
# [7] = molecular target: Estrogen receptor (Homo sapiens) (UniProt P03372); assay: qHTS assay for small molecule antagonists of estrogen receptor alpha signaling (AID 588513; active = well fitted curve in the direction sought with a large enough effect in the signal ratio, with a control signal flat, not every such curve was filed as active; inconclusive = small, poorly fitted or top-dose-only effect, or effect the other way, or a change in a side signal; inactive = no such curve, though single readings can be large or run the other way; the % refers to the signal ratio; also: % is scaled to controls: 0 for no effect and ±100 for the full control effect); conditions: ER-alpha-UAS-bla HEK293, beta-lactamase ratio, antagonist mode; activity, negative = inhibition: at 76.9 µM (top of the series) unless noted
# In short: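 Beta-lactamase reporter, antagonist mode, HEK 293 GripTite cells; 0.5nM E2 stimulus, 18 h, 37 C; CCF4 dye 2 h RT; fluorescence. IC50 and efficacy from Hill fits, normalized to E2 and DMSO.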
# [8] = molecular target: Bile acid receptor (Homo sapiens) (UniProt Q96RI1); assay: qHTS assay for small molecule antagonists of farnesoid X receptor signaling (AID 588526; calls by dose curve; also: % is scaled to controls: 0 for no effect and ±100 for the full control effect); conditions: HEK293T FXR-UAS-bla, beta-lactamase ratio, antagonist mode; activity change, negative = inhibition: at 76.7 µM (top of the series)
# In short: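 Beta-lactamase reporter antagonist mode: HEK293T FXR-UAS-bla cells, titrated compound, CDCA stimulation, 16 h 37 C, CCF4 dye 2 h RT. Data normalized to CDCA 50 uM and DMSO; Hill-fit IC50.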
# [9] = molecular target: Peroxisome proliferator-activated receptor delta (Homo sapiens) (UniProt Q03181); assay: qHTS assay for small molecule antagonists of peroxisome proliferator-activated receptor delta signaling (AID 588535; active = well fitted inhibition curve with a large enough effect in the signal ratio, with a control signal flat, not every such curve was filed as active; inconclusive = small, poorly fitted or top-dose-only effect, or effect the other way, or a change in a side signal; inactive = no such curve, though single readings can be large or run the other way; the % refers to the signal ratio); conditions: HEK293T PPARd-UAS-bla, beta-lactamase FRET ratio, 18 h; activity change, negative = inhibition: at 76.7 µM (top of the series)
# In short: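 Cell-based beta-lactamase assay in antagonist mode: 4000 HEK293T PPAR-delta-UAS-bla cells per well, 5 hr preincubation then 18 hr compound incubation at 37 C. IC50 obtained by Hill equation fitting.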
# [10] = qHTS assay for small molecule antagonists of the retinoid-related orphan receptor gamma (ROR-gamma) signaling pathway - cell viability counter screen (AID 720652; active = well fitted curve in the direction sought with a large enough effect in the repeat runs; inconclusive = weak or mixed curves; inactive = no such curve, though single readings can be large; an effect the other way counts as inactive or inconclusive)
# In short: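 Cytotoxicity is quantified via intracellular ATP (CellTiter-Glo luminescence) in doxycycline-induced CHO ROR response element-luciferase reporter cells treated with compound for 16 hr at 37 C, 5% CO2.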
# [11] = Cell Viability - N2a (AID 540); conditions: N2a mouse neuroblastoma cell viability; activity change, negative = cytotoxicity: at 92.2 µM (top of the series);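 also: cells exposed to compound for 40 h at 37 °C; plate controls were DMSO alone for no effect and tamoxifen control for full effect; nearly all actives have a fitted effect of over 45% in size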
# In short: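 First, 1500 N2a cells per well incubate 5 hr at 37 °C; next, compounds are added and incubated 40 hr at 37 °C; finally CellTiter-Glo is added and luminescence read after 20 min, with AC50 derived by Hill modeling.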
# [12] = molecular target: Thyroid hormone receptor beta (Homo sapiens) (UniProt P10828); assay: qHTS assay for small molecule antagonists of thyroid hormone receptor beta signaling (AID 588547; active = well fitted inhibition curve with a large enough effect in the signal ratio, with a control signal flat, not every such curve was filed as active; inconclusive = small, poorly fitted or top-dose-only effect, or effect the other way, or a change in a side signal; the % refers to the signal ratio); conditions: TR-UAS-bla HEK293, beta-lactamase ratio, antagonist mode, 18 h
# In short: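 Inhibition of T3-driven (0.4nM final) beta-lactamase reporter activity was measured over 0.59 nM to 92 uM compound after 18 h at 37 C. The cells were GripTite HEK293 TR-UAS-bla in charcoal/dextran-stripped serum, with CCF4 ratio read-out and IC50 from Hill fits.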
# [13] = qHTS Assay for Identification of Small Molecule Agonists for Hypoxia Response Element Signaling Pathway (AID 914; active = well fitted activation curve with a large enough effect in the signal ratio, with a control signal flat, not every such curve was filed as active; inconclusive = small, poorly fitted or top-dose-only effect, or effect the other way, or a change in a side signal; the % refers to the signal ratio; also: top concentration of the series differs between compounds; % of control where 0% means no effect); conditions: ME-180 (cervical carcinoma) HRE-bla reporter, beta-lactamase ratio, CoCl2, 17 h; activation: stronger effect = higher value
# In short: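 Reporter activity (beta-lactamase, CCF4 460nm/530nm ratio) in HRE-bla ME-180 cells is recorded after 17 h compound exposure with EC50 CoCl2 at 37 degrees Celsius. AC50 values come from titration data.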
# [14] = Cell Viability - LYMP2-022 (AID 987);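 also: 0% = DMSO alone and full effect = tetraoctylammonium bromide at 92 µM; nearly all actives have a fitted effect of over 55% in size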
# In short: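 Acute toxicity in a human lymphoblastoid line is scored as decreased intracellular ATP after 24 hr compound treatment at 37 C. ATP is measured by CellTiter-Glo luminescence; curves are fitted with the Hill equation to give AC50.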
# [15] = molecular target: Peroxisome proliferator-activated receptor delta (Homo sapiens) (UniProt Q03181); assay: qHTS assay for small molecule agonists of peroxisome proliferator-activated receptor delta signaling (AID 588534; calls by dose curve;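 also: 0% = DMSO basal wells and 100% = positive control agonist at 10 µM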); conditions: HEK293T PPARdelta-UAS-bla, beta-lactamase ratio, 18 h; activation: at 76.7 µM (top of the series)
# In short: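 Reporter cells were plated and held 5 hrs at 37 C before compounds were added. After 18 hrs at 37 C, CCF4 dye was loaded for 2 hrs at RT and fluorescence measured.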
# [16] = molecular target: Retinoic acid receptor RXR-alpha (Homo sapiens) (UniProt P19793); assay: qHTS assay for small molecule agonists of retinoid X receptor alpha signaling (AID 588544; calls by dose curve;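 also: 0% = DMSO basal wells and 100% = reference agonist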); conditions: HEK293T RXRa-UAS-bla, beta-lactamase reporter, 18 h; activation: at 76.7 µM (top of the series)
# [17] = molecular target: Thyroid hormone receptor beta (Homo sapiens) (UniProt P10828); assay: qHTS assay for small molecule agonists of thyroid hormone receptor beta signaling (AID 588545; calls by dose curve;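 also: 0% = DMSO only and 100% = 10 nM T3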); conditions: TR-UAS-bla GripTite HEK 293, beta-lactamase ratio, agonist mode, 18 h; activation: at 76.7 µM, percent of T3 response, DMSO as zero
# In short: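 TR-UAS-bla GripTite HEK 293 cells (2500/well, medium with 2% charcoal/dextran FBS) were treated in agonist mode for 18 h at 37 C, titrated. Beta-lactamase was read by CCF4 ratio after 2 h; normalized to 10 nM T3 (100%) and DMSO, Hill-fitted for EC50 and efficacy.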
# [18] = Cell Viability - HUV-EC-C (AID 542);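 also: cells exposed to compound for 40 hours; % is scaled to controls: 0 for no effect and ±100 for the full control effect; nearly all actives have a fitted effect of over 35% in size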
# In short: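 Decrease in cellular ATP, quantified by luciferase luminescence, reflects toxicity in normal human vascular endothelial HUV-EC-C cells given compound for 40 hr in complete culture medium. Values are AC50s from concentration-response curves.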
# Tags tell the direction and shape of the fitted curve.
# UniProt Q03181, sequence (Q03181 whole entry, looked up): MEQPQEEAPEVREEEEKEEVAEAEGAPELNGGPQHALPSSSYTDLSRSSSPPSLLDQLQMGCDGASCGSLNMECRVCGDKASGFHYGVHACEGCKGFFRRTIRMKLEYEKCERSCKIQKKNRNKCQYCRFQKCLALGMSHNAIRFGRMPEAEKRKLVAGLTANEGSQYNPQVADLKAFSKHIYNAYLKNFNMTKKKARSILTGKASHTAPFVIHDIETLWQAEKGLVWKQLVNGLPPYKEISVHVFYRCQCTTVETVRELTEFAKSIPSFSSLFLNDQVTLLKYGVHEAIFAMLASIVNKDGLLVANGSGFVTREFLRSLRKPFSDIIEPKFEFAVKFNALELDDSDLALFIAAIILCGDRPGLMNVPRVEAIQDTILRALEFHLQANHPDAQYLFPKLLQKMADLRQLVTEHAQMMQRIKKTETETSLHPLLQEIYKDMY
# UniProt P10828, sequence (P10828 whole entry, looked up): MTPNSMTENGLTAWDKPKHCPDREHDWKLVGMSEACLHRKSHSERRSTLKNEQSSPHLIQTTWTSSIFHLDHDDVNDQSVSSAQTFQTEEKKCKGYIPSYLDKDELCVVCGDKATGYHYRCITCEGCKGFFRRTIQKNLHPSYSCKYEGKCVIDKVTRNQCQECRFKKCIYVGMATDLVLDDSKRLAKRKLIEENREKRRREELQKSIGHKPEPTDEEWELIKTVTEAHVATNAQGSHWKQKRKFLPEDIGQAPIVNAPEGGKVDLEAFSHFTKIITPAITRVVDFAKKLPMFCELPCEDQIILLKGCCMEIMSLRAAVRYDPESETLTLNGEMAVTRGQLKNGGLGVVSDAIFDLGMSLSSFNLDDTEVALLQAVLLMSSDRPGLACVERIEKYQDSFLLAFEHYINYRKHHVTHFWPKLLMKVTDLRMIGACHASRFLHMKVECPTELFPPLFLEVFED
# UniProt P19793, sequence (P19793 whole entry, looked up): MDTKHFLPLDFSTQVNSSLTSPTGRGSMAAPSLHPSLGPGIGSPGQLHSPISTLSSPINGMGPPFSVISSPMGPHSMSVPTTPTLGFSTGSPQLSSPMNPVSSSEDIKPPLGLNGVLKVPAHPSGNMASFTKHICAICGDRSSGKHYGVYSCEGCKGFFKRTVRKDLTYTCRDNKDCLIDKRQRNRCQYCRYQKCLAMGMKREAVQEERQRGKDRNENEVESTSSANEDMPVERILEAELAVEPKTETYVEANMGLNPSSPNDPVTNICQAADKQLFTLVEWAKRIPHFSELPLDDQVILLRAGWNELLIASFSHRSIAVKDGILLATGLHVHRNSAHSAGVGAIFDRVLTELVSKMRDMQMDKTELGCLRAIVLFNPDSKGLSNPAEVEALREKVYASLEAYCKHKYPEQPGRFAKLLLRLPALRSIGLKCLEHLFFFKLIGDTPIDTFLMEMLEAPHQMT
# UniProt P10275, sequence (P10275 whole entry, looked up): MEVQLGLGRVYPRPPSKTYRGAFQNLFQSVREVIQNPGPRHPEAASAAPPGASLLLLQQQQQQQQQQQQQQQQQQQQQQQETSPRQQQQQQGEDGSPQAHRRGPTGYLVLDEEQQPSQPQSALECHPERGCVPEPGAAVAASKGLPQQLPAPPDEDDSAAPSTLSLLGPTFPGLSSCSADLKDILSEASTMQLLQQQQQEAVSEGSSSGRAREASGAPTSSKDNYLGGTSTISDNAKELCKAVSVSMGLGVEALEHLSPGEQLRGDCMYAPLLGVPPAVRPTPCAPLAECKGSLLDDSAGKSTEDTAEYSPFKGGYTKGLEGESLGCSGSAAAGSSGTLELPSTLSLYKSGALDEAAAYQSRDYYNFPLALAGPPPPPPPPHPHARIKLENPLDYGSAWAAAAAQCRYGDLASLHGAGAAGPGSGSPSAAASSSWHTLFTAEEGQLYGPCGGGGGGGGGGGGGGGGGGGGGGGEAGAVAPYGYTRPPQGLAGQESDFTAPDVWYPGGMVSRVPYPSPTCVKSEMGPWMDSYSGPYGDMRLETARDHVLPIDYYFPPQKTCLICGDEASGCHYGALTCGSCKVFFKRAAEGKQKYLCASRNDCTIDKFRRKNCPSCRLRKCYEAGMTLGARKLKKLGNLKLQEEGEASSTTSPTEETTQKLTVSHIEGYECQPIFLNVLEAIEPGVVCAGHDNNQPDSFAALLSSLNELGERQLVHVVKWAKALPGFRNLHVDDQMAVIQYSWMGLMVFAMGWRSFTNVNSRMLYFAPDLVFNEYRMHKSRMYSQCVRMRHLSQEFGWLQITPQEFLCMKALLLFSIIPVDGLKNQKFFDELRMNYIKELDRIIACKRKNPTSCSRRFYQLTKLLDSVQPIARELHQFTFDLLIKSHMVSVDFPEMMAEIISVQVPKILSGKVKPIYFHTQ
# UniProt P03372, sequence (P03372 whole entry, looked up): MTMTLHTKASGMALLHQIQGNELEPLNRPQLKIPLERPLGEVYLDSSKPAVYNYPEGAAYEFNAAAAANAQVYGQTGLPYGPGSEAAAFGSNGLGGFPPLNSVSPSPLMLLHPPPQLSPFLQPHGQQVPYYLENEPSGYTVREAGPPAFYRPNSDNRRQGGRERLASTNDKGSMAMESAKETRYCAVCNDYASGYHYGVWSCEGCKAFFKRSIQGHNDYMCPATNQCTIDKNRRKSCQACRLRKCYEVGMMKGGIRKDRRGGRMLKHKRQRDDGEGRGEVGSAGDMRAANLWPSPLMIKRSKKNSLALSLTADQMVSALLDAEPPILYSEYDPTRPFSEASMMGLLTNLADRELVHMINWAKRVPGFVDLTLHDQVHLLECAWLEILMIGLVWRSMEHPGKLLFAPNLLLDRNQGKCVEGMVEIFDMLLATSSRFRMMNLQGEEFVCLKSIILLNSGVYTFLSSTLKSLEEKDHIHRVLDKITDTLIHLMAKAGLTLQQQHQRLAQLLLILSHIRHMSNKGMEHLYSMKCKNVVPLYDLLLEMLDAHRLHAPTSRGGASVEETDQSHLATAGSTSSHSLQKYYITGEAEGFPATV
compound,measurement,setting,value
OCCOCCOCCO,"activity change, negative = inhibition","[1]; activity change, negative = inhibition: at 76.8 µM (top of the series)",inconclusive: -75.7%
same,"activity change, negative = inhibition",[1]; at 2.03 mM (top of the series),inactive: -17.5%
same,Potency,[2],"inconclusive: 54.5 µM [activator, partial curve, poor fit]"
Nc1ncnc2c1ncn2[C@H]1CC[C@@H](CO)O1,Potency,[3],inactive
same,caspase-3 activation,[4],inconclusive: 43.7%
same,Potency,[5],inactive
same,Potency,[6],inactive
same,"activity, negative = inhibition",[7],inconclusive: -5.48%
same,"activity change, negative = inhibition",[8],inconclusive: -28.3%
same,Potency,[9],inactive
same,Potency,[2],"inconclusive: 1.54 µM [activator, full curve, poor fit]"
same,Potency,[10],inactive
CO/N=C(/C(=O)N[C@@H]1C(=O)N2C(C(=O)O)=C(COC(N)=O)CS[C@H]12)c1ccco1,"activity change, negative = inhibition",[9],inconclusive: -26.9%
[O-][N+](=Nc1ccccc1)c1ccccc1,"activity change, negative = cytotoxicity",[11],inactive: 4.21%
same,activity change % (negative = inhibition),[12],inactive: 7.57%
Cc1cccc(C)c1NC(=O)C1CCCCN1C (centres undefined),activation,[13],inactive: 5.97%
Nc1ccn([C@H]2CS[C@@H](CO)O2)c(=O)n1,Potency,[14],inactive
same,activation,[15],inconclusive: 3.89%
same,Potency,[16],inactive
same,activity change % (negative = inhibition),[12],inactive: 10.8%
ClC(Cl)Cl,activation,[17],inconclusive: -55%
Cc1ccccc1,Potency,[18],inactive
same,Potency,[14],inactive
same,Potency,[16],inactive
